Assay results reported in PMC9911399, “Two distinct binding modes provide the RNA-binding protein RbFox with extraordinary sequence specificity”.
Changes are numbered by the printed parent chain; changes in the protein carry UniProt numbers. This is one part of the list.

T1: RBFOX1 RRM (Homo sapiens, UniProt Q9NWB1 109-208)
T1 sequence: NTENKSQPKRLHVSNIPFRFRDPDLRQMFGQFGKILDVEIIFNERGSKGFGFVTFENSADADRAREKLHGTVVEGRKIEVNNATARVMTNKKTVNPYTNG

B1: UUUUUUU (DNA:RNA)
RNA: GGGAGACCGGAAUUCAGAUUGUCCUUUUUUUUUAAAUCCCGUCGUAGCCACCA
DNA 1: CAATCTGAATTCCGGTCTCCC
DNA 2: TGGTGGCTACGACGGGATT
B2: GAGUUUA (DNA:RNA)
RNA: B1 RNA with U25G, U26A, U27G, U31A
DNA 1: CAATCTGAATTCCGGTCTCCC
DNA 2: TGGTGGCTACGACGGGATT
B3: CGUAGCU (DNA:RNA)
RNA: B1 RNA with U25C, U26G, U28A, U29G, U30C
DNA 1: CAATCTGAATTCCGGTCTCCC
DNA 2: TGGTGGCTACGACGGGATT
B4: CUAACAC (DNA:RNA)
RNA: B1 RNA with U25C, U27A, U28A, U29C, U30A, U31C
DNA 1: CAATCTGAATTCCGGTCTCCC
DNA 2: TGGTGGCTACGACGGGATT
B5: CAUUAUU (DNA:RNA)
RNA: B1 RNA with U25C, U26A, U29A
DNA 1: CAATCTGAATTCCGGTCTCCC
DNA 2: TGGTGGCTACGACGGGATT
B6: AAUUGGU (DNA:RNA)
RNA: B1 RNA with U25A, U26A, U29G, U30G
DNA 1: CAATCTGAATTCCGGTCTCCC
DNA 2: TGGTGGCTACGACGGGATT
B7: GUUCCUU (DNA:RNA)
RNA: B1 RNA with U25G, U28C, U29C
DNA 1: CAATCTGAATTCCGGTCTCCC
DNA 2: TGGTGGCTACGACGGGATT
B8: AGGCGCG (DNA:RNA)
RNA: GGGAGACCGGAAUUCAGAUUGUCCAGGCGCGUUAAAUCCCGUCGUAGCCACCA
DNA 1: CAATCTGAATTCCGGTCTCCC
DNA 2: TGGTGGCTACGACGGGATT
B9: AUGUACU (DNA:RNA)
RNA: B8 RNA with G26U, C28U, G29A, G31U
DNA 1: CAATCTGAATTCCGGTCTCCC
DNA 2: TGGTGGCTACGACGGGATT
B10: GCACCCU (DNA:RNA)
RNA: B8 RNA with A25G, G26C, G27A, G29C, G31U
DNA 1: CAATCTGAATTCCGGTCTCCC
DNA 2: TGGTGGCTACGACGGGATT
B11: GUAUGAG (DNA:RNA)
RNA: B8 RNA with A25G, G26U, G27A, C28U, C30A
DNA 1: CAATCTGAATTCCGGTCTCCC
DNA 2: TGGTGGCTACGACGGGATT
B12: AAAGAAU (DNA:RNA)
RNA: B8 RNA with G26A, G27A, C28G, G29A, C30A, G31U
DNA 1: CAATCTGAATTCCGGTCTCCC
DNA 2: TGGTGGCTACGACGGGATT
B13: UAGUGGG (DNA:RNA)
RNA: B8 RNA with A25U, G26A, C28U, C30G
DNA 1: CAATCTGAATTCCGGTCTCCC
DNA 2: TGGTGGCTACGACGGGATT
B14: GUGGCCC (DNA:RNA)
RNA: B8 RNA with A25G, G26U, C28G, G29C, G31C
DNA 1: CAATCTGAATTCCGGTCTCCC
DNA 2: TGGTGGCTACGACGGGATT
B15: CAUCACG (DNA:RNA)
RNA: B8 RNA with A25C, G26A, G27U, G29A
DNA 1: CAATCTGAATTCCGGTCTCCC
DNA 2: TGGTGGCTACGACGGGATT
B16: CCAUGAG (DNA:RNA)
RNA: B8 RNA with A25C, G26C, G27A, C28U, C30A
DNA 1: CAATCTGAATTCCGGTCTCCC
DNA 2: TGGTGGCTACGACGGGATT
B17: CGUGAUU (DNA:RNA)
RNA: B1 RNA with U25C, U26G, U28G, U29A
DNA 1: CAATCTGAATTCCGGTCTCCC
DNA 2: TGGTGGCTACGACGGGATT
B18: ACAAGUA (DNA:RNA)
RNA: B8 RNA with G26C, G27A, C28A, C30U, G31A
DNA 1: CAATCTGAATTCCGGTCTCCC
DNA 2: TGGTGGCTACGACGGGATT
B19: UCCUAGA (DNA:RNA)
RNA: B1 RNA with U26C, U27C, U29A, U30G, U31A
DNA 1: CAATCTGAATTCCGGTCTCCC
DNA 2: TGGTGGCTACGACGGGATT
B20: UGCUUCA (DNA:RNA)
RNA: B1 RNA with U26G, U27C, U30C, U31A
DNA 1: CAATCTGAATTCCGGTCTCCC
DNA 2: TGGTGGCTACGACGGGATT
B21: UGAGGUG (DNA:RNA)
RNA: B8 RNA with A25U, G27A, C28G, C30U
DNA 1: CAATCTGAATTCCGGTCTCCC
DNA 2: TGGTGGCTACGACGGGATT
B22: UUAGGUU (DNA:RNA)
RNA: B1 RNA with U27A, U28G, U29G
DNA 1: CAATCTGAATTCCGGTCTCCC
DNA 2: TGGTGGCTACGACGGGATT
B23: CGCGAAC (DNA:RNA)
RNA: B8 RNA with A25C, G27C, C28G, G29A, C30A, G31C
DNA 1: CAATCTGAATTCCGGTCTCCC
DNA 2: TGGTGGCTACGACGGGATT
B24: ACUACUG (DNA:RNA)
RNA: B8 RNA with G26C, G27U, C28A, G29C, C30U
DNA 1: CAATCTGAATTCCGGTCTCCC
DNA 2: TGGTGGCTACGACGGGATT
B25: CUCCGUC (DNA:RNA)
RNA: B8 RNA with A25C, G26U, G27C, C30U, G31C
DNA 1: CAATCTGAATTCCGGTCTCCC
DNA 2: TGGTGGCTACGACGGGATT
B26: AGGGCCA (DNA:RNA)
RNA: B8 RNA with C28G, G29C, G31A
DNA 1: CAATCTGAATTCCGGTCTCCC
DNA 2: TGGTGGCTACGACGGGATT
B27: GAUCCGG (DNA:RNA)
RNA: B8 RNA with A25G, G26A, G27U, G29C, C30G
DNA 1: CAATCTGAATTCCGGTCTCCC
DNA 2: TGGTGGCTACGACGGGATT
B28: GAAUCGA (DNA:RNA)
RNA: B1 RNA with U25G, U26A, U27A, U29C, U30G, U31A
DNA 1: CAATCTGAATTCCGGTCTCCC
DNA 2: TGGTGGCTACGACGGGATT
B29: AGAAAAG (DNA:RNA)
RNA: B8 RNA with G27A, C28A, G29A, C30A
DNA 1: CAATCTGAATTCCGGTCTCCC
DNA 2: TGGTGGCTACGACGGGATT
B30: AAUAUAG (DNA:RNA)
RNA: B8 RNA with G26A, G27U, C28A, G29U, C30A
DNA 1: CAATCTGAATTCCGGTCTCCC
DNA 2: TGGTGGCTACGACGGGATT
B31: AUGACUA (DNA:RNA)
RNA: B8 RNA with G26U, C28A, G29C, C30U, G31A
DNA 1: CAATCTGAATTCCGGTCTCCC
DNA 2: TGGTGGCTACGACGGGATT

The binders below were run against T1, RBFOX1 RRM (assay: EMSA; HiTS-Eq, 1 nM pool, 10 min; buffer printed only for the single-RNA assays: 10 mM Tris pH 7.5, 150 mM NaCl, 3.4 mM EDTA, 0.001% NP-40, 30 C). Conditions: tags: His6 N-terminal (pET28a); label: 5' 32P.
Summary of the method: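 Relative association constants, normalised to the cognate motif, were derived by comparing read counts of each RNA species with those of the control reaction. The RNA sequenced was the free fraction, separated by 8% native PAGE after a 10 min equilibration in 50 µL of 1 nM 5′-radiolabelled RNA (7 randomized nucleotides) with increasing concentrations of purified wild-type or mutant RbFox RRM.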

Row | Binder | binding signal
1 | B1 | 0.0186 KA relative to UGCAUGU
2 | B2 | 0.00687 KA relative to UGCAUGU
3 | B3 | 0.00923 KA relative to UGCAUGU
4 | B4 | 0.00387 KA relative to UGCAUGU
5 | B5 | 0.00131 KA relative to UGCAUGU
6 | B6 | 0.0103 KA relative to UGCAUGU
7 | B7 | 0.0123 KA relative to UGCAUGU
8 | B8 | 0.0195 KA relative to UGCAUGU
9 | B9 | 0.00502 KA relative to UGCAUGU
10 | B10 | 0.00773 KA relative to UGCAUGU
11 | B11 | 0.0141 KA relative to UGCAUGU
12 | B12 | 0.00495 KA relative to UGCAUGU
13 | B13 | 0.00819 KA relative to UGCAUGU
14 | B14 | 0.0179 KA relative to UGCAUGU
15 | B15 | 0.00351 KA relative to UGCAUGU
16 | B16 | 0.0109 KA relative to UGCAUGU

Row | Binder | binding signal
17 | B17 | 0.00971 KA relative to UGCAUGU
18 | B18 | 0.000377 KA relative to UGCAUGU
19 | B19 | 0.01 KA relative to UGCAUGU
20 | B20 | 0.0113 KA relative to UGCAUGU
21 | B21 | 0.0201 KA relative to UGCAUGU
22 | B22 | 0.0151 KA relative to UGCAUGU
23 | B23 | 0.0117 KA relative to UGCAUGU
24 | B24 | 0.00616 KA relative to UGCAUGU
25 | B25 | 0.00995 KA relative to UGCAUGU
26 | B26 | 0.018 KA relative to UGCAUGU
27 | B27 | 0.00499 KA relative to UGCAUGU
28 | B28 | 0.0155 KA relative to UGCAUGU
29 | B29 | 0.00363 KA relative to UGCAUGU
30 | B30 | 0.00237 KA relative to UGCAUGU
31 | B31 | 0.00301 KA relative to UGCAUGU
